# Reference: PubChem BioAssay AID504333 (National Center for Advancing Translational Sciences (NCATS), 2011)
# Out of some 360,000 compounds screened, about 16,000 (4.4%) were called active. Inconclusive means that the source gave no clear call. Such entries were picked first, then a sample of the others. The call rests on the fitted dose curve; in most records, active means well fitted inhibition curve with a large enough effect; inconclusive means small, poorly fitted or top-dose-only effect; inactive means no such curve, though single readings can be large or run the other way. Where the call is inconclusive, the potency comes from a doubtful curve fit.
# Biological target: Bromodomain adjacent to zinc finger domain protein 2B (Homo sapiens) (UniProt Q9UIF8)
# Chain of UniProt Q9UIF8 (Q9UIF8 whole entry, looked up, the tested form may be a part): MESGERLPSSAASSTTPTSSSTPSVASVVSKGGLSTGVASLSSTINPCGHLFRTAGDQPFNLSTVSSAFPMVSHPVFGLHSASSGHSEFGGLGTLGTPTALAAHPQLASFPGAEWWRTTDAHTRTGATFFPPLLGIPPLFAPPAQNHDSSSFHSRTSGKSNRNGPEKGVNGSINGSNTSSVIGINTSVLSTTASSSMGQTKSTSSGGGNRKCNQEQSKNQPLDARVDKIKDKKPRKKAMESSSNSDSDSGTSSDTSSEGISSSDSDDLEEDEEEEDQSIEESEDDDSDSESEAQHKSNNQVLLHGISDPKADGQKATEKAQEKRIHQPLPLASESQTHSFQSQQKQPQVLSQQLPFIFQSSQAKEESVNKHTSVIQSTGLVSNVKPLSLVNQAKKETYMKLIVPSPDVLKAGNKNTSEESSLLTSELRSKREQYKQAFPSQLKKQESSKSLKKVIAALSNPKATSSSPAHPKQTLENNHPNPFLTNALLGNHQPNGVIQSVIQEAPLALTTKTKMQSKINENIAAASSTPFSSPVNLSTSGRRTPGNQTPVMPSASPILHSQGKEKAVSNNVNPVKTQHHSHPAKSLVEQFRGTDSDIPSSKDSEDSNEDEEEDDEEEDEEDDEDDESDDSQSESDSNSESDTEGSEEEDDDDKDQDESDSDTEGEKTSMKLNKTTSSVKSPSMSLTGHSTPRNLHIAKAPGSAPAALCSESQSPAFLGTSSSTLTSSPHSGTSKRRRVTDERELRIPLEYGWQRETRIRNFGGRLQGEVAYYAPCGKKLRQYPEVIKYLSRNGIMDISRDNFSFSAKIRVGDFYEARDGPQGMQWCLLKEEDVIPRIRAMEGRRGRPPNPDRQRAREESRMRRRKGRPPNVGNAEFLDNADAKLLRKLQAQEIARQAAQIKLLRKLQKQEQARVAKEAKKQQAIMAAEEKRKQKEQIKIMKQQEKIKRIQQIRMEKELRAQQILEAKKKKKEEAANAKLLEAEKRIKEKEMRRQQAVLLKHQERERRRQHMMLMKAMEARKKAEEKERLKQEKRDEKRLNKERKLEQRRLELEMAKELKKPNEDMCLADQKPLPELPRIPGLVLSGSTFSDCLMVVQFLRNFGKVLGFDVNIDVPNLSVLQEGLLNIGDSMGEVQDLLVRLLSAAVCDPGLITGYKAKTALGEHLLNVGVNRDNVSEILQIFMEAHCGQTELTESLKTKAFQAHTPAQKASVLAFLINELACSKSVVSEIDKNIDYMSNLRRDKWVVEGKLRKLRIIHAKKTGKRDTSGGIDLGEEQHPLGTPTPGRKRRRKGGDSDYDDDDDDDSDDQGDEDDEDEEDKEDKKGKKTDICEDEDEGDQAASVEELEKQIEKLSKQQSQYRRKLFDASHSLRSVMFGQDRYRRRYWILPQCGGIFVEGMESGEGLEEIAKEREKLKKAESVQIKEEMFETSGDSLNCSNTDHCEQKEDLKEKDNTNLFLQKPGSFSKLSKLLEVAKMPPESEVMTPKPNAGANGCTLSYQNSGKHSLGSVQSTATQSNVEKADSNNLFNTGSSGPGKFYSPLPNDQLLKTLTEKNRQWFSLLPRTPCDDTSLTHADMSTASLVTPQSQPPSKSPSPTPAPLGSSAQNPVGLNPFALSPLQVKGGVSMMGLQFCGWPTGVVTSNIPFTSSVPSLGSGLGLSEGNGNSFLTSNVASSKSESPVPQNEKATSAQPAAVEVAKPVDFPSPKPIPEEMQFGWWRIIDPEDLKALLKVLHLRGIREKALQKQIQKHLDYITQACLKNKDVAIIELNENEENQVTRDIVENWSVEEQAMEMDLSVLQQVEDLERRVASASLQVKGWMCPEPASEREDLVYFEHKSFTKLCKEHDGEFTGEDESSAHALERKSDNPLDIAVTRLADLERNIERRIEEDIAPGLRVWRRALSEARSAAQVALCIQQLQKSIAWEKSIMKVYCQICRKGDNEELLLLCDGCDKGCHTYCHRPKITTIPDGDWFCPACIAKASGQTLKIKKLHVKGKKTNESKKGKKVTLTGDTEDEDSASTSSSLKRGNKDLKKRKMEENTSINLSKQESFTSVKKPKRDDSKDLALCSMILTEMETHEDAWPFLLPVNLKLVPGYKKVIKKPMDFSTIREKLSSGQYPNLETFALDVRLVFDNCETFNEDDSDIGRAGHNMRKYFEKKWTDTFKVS
# Assay: qHTS Assay for Inhibitors of BAZ2B; further: nearly all actives have a fitted effect of over 60% in size
# Conditions: AlphaScreen BAZ2B-H3K14Ac peptide displacement; activity change, negative = inhibition: at 114 µM (top of the series) unless noted
# How it was run: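 Protein-peptide AlphaScreen: BAZ2B 50 nM, b-H3K14Ac 50 nM, 1x PBS pH 7.4 + 0.01% Tween-20. Preincubation 30 min RT; cpd 30 min RT (top 110 uM); beads 20 min RT, light-protected.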
# On the % scale 0 is the no-effect control and ±100 the full control effect; potency means the concentration at half of the fitted maximal effect; tags describe the fitted curve by direction and shape.
Structure (SMILES),Potency,"activity change, negative = inhibition"
COC(=O)c1sc(S(=O)(=O)N2CCN(c3ccc(OC)cc3)CC2)c(C(=O)OC)c1C,"inconclusive: 50.1 µM [inhibitor, partial curve, poor fit]",
Cc1[nH]n(-c2ccccc2)c(=O)c1-c1cccc(Cl)c1,"inconclusive: 89.1 µM [inhibitor, single point]",
CN(C)c1ccc(NC(=O)CCn2c(=S)oc3ccccc32)cc1,active: 25.1 µM,
COCCNc1oc(-c2ccc(Cl)cc2)nc1C#N,"inconclusive: 89.1 µM [inhibitor, single point]",
O=C(O)c1ccc2c(c1)C(=O)/C(=C\c1ccco1)C2=O,active: 35.5 µM,
CCOC(=O)C1CCN(c2csc3ccc(C)cc3c2=O)CC1,"inconclusive: 79.4 µM [inhibitor, single point]",
CC(C)(C)OC(=O)N1CCC(c2c(C(=O)N3CCN(c4ccccc4F)CC3)cnn2C(C)(C)C)CC1,,inactive: 3.09% [at 57.1 µM]
O=C1c2cccc3cccc(c23)C(=O)N1CCN1CCN(CC(O)COc2ccc3ccccc3c2)CC1 (centres undefined),"inconclusive: 25.1 µM [inhibitor, partial curve]",
O=C(CSc1nccn1Cc1ccc(F)cc1)Nc1ccc(F)cc1F,"inconclusive: 79.4 µM [inhibitor, single point]",
O=S1(=O)N=C(SCCO)c2ccccc21,"inconclusive: 89.1 µM [inhibitor, single point]",
CCc1ccc2c(c1)c(=O)c(S(=O)(=O)c1ccccc1)cn2CC(=O)Nc1cc(C)ccc1C,,inactive: -6.27%
CCn1c(SCC(=O)NCCc2ccccc2)nnc1C(C)C,,inactive: -9.44%
C#CCSc1[nH]c(=O)cc(C)c1C#N,"inconclusive: 89.1 µM [inhibitor, single point]",
C=CCn1cc(/C=N/N2C(=O)C3C4C=CC(C4)C3C2=O)c2ccccc21 (centres undefined),"inconclusive: 79.4 µM [inhibitor, single point]",
COc1ccc(O)c(C2(O)C(=O)c3ccccc3C2=O)c1,,inactive: -2.58%
Cc1ccccc1-c1nc(CS(=O)(=O)CC(=O)Nc2c(C)cccc2C)c(C)o1,,inactive: -19.3%
Cn1cccc1CC(=O)N/N=C/c1ccc(C(C)(C)C)cc1,"inconclusive: 70.8 µM [inhibitor, partial curve]",
COc1cccc(C(=O)NCCS(=O)(=O)NCc2ccc3c(c2)OCO3)c1,,inactive: 0.31%
N#C/C(=C\c1ccc(Cl)c([N+](=O)[O-])c1)c1ccccn1,"inconclusive: 79.4 µM [inhibitor, single point]",
COc1ccc(Br)cc1/C=c1\sc2nc(-c3ccco3)nn2c1=O,active: 15.8 µM,
O=C(/C=C/c1ccco1)OCn1nnc2ccccc2c1=O,active: 56.2 µM,
O=C(CSCc1ccc(Cl)cc1)Nc1cc([N+](=O)[O-])ccc1O,"inconclusive: 70.8 µM [inhibitor, single point]",
COc1ccc(NC(NC(=O)c2ccc(OC)cc2)C(Cl)(Cl)Cl)cc1 (centres undefined),"inconclusive: 89.1 µM [inhibitor, single point]",
C/C(=N\NC(=S)NC1CCCCC1)c1cccs1,active: 50.1 µM,
Cc1ccc(N/N=C/c2ccncc2)cc1,"inconclusive: 56.2 µM [inhibitor, partial curve]",

Structure (SMILES),Potency,"activity change, negative = inhibition"
Cc1ccc2cc(C(c3nnnn3C3CCCC3)N(Cc3ccccc3)Cc3ccco3)c(=O)[nH]c2c1 (centres undefined),"inconclusive: 89.1 µM [inhibitor, single point]",
COc1ccc(-c2cc(C(C)=O)c(C)n2CCC(=O)Nc2cccc(C)c2C)cc1,,inactive: -1.64%
COc1ccccc1NC(=O)CCc1nnc2ccc(NCc3ccco3)nn12,,inactive: -35.5%
O=C(CSc1nc2ccccc2c2nc(-c3ccccc3)nn12)Nc1ccc(F)cc1,,inactive: -4.59%
CCOC(=O)C1CCN(C2=C(NS(=O)(=O)c3ccc(Cl)cc3)C(=O)c3ccccc3C2=O)CC1,active: 8.91 µM,
COc1ccc(NC(=O)CN2CCN(c3nc(-c4ccc(F)cc4)cs3)CC2)c(OC)c1,"inconclusive: 79.4 µM [inhibitor, single point]",
Cn1c(=O)cc(SCC(=O)NCCc2ccc(Cl)cc2)c2cc(Cl)ccc21,,inactive: -4.88%
Clc1ccc(OCCn2cnc(Cl)c2Cl)cc1,"inconclusive: 28.2 µM [inhibitor, partial curve]",
CCc1ccc2oc(C(=O)N(Cc3cccc(Cl)c3)Cc3ccco3)c(C)c2c1,,inactive: 11.1%
O=C(c1ccccc1Br)N(Cc1ccccc1)c1ccccc1,,inactive: 0.181%
CN(Cc1ccccc1)c1nc2c(c(=O)[nH]c(=O)n2C)n1Cc1ccccc1F,"inconclusive: 89.1 µM [inhibitor, single point]",
CN1C(=O)S/C(=C/c2cccn2-c2cccc(C(=O)O)c2)C1=O,"inconclusive: 50.1 µM [inhibitor, partial curve]",
Nc1cc(N)nc(SCC(=O)NCc2ccco2)n1,"inconclusive: 100 µM [inhibitor, single point]",
COc1ccccc1CNC(=O)CNCCc1ccc(OC)c(OC)c1,active: 50.1 µM,
CCN1CCN(c2cc(C)c3cc(NC(=O)c4cc(OC)c(OC)c(OC)c4)ccc3n2)CC1,"inconclusive: 79.4 µM [inhibitor, single point]",
Cc1cc(/C=N/NC(N)=S)c(C)n1-c1cccc(Cl)c1,"inconclusive: 50.1 µM [inhibitor, partial curve]",
O=[N+]([O-])c1ccc(N2CCN(c3ccccc3O)CC2)c(Cl)c1,"inconclusive: 50.1 µM [inhibitor, partial curve]",
COc1ccc(CCN(C)C(=O)c2ccc(S(=O)(=O)NCc3ccco3)cc2)cc1OC,"inconclusive: 89.1 µM [inhibitor, single point]",
COc1cccc(C(=O)N2CCc3cc(OC)c(OC)cc3C2COc2ccc3c(C)cc(=O)oc3c2)c1 (centres undefined),,inactive: 4.4%
CCCC(=O)NC(=S)Nc1cccc2c(O)cccc12,"inconclusive: 79.4 µM [inhibitor, single point]",
CC1=NN(c2ccc(N)cc2)C(=O)C1,"inconclusive: 89.1 µM [inhibitor, single point]",
Cc1ccc(NC(=S)c2nc3ccccc3s2)cc1,active: 8.91 µM,
CCn1nnc(NC(=O)Cc2ccc(Cl)cc2)n1,,inactive: -14.4%
CC(=O)Nc1sc2c(c1C(c1ccc(F)cc1)N1CCOCC1)CCCC2 (centres undefined),active: 50.1 µM,
O=C(NCCN1CCOCC1)c1c(O)nc2ccccn2c1=O,"inconclusive: 89.1 µM [inhibitor, single point]",

Structure (SMILES),Potency,"activity change, negative = inhibition"
CCCCNC(=O)Cn1nc(N2CCN(c3ccccc3OC)CC2)ccc1=O,"inconclusive: 89.1 µM [inhibitor, single point]",
CC(C)N(C(=O)CN1C(=O)C(=O)c2ccccc21)c1ccccc1,,inactive: -18.4%
Cc1ccccc1C1C(C#N)=C2N=C(N)c3c(sc4c3CCCCC4)N2C2=C1C(=O)CCC2 (centres undefined),active: 44.7 µM,
CC1CCCN(C(=O)CNS(=O)(=O)c2cccs2)C1 (centres undefined),,inactive: 11.4%
Cc1cccc(NC(=O)CSc2nc3ccccc3c(=O)n2C)c1,"inconclusive: 89.1 µM [inhibitor, single point]",
COc1ccc(Br)c(C(=O)NNC(=O)c2ccc(NS(=O)(=O)c3cccs3)cc2)c1,,inactive: 9.93%
O=C(NC(=S)N1CCc2ccccc21)c1ccccc1,"inconclusive: 44.7 µM [inhibitor, partial curve]",
CCOc1cc(N2CCOCC2)c(OCC)cc1NC(=O)C1CCCC1,,inactive: -2.8%
CC(=O)OCC1(C)CN(c2ccccc2)N(C(=O)c2ccc(C(C)(C)C)cc2)C1=O (centres undefined),,inactive: -24.1%
CCOC(=O)c1cccc(Nc2nc(-c3cccnc3)nc3ccccc23)c1,"inconclusive: 100 µM [inhibitor, single point]",
C#CCOCCOCCOCCNc1nc(N2CCN(C(=O)[C@H](CCC(=O)O)n3cc(C(N)[C@H](C)CC)nn3)CC2)nc(N2CCN(C(=O)[C@H](Cc3cc4ccccc4[nH]3)n3cc(C(N)[C@H](C)CC)nn3)CC2)n1 (some centres undefined),active: 50.1 µM,
COc1ccc(-c2ccc(/C=C3/C(=N)N4C(C)=CSC4=NC3=O)o2)c([N+](=O)[O-])c1,"inconclusive: 8.91 µM [inhibitor, full curve, poor fit]",
COc1ccc2cc3cc(C(=O)NCCN4CCc5ccccc5C4)oc3nc2c1,"inconclusive: 89.1 µM [inhibitor, single point]",
COc1cc(C)ccc1OCCSc1nc2ccc(NC(=O)c3ccccc3F)cc2s1,,inactive: 6.88%
COc1ccc(-c2cc(C(=O)N3CCN(Cc4ccc5c(c4)OCO5)CC3)on2)cc1OC,"inconclusive: 44.7 µM [inhibitor, partial curve]",
O=C(c1nc2ccc(Cl)cn2c1CN1CCCC1)N1CCc2ccccc2C1,"inconclusive: 25.1 µM [inhibitor, single point]",
CCCC1=C/C(=C/c2ccc(-c3ccccc3OC)o2)C(=O)O1,active: 39.8 µM,
Cc1cc2cc(CNC(=S)Nc3ccc(OC(F)F)cc3)ccc2[nH]1,active: 44.7 µM,
CC(C)C[C@H]1CN=C(N(C)C)N1CC1CCCCCC1,,inactive: 7.82%
CCCOc1ccc(C(=O)Nc2ccc(NC(=O)c3ccc(Br)cc3)cc2)cc1,,inactive: 3.14%
COc1cccc(/C=N/NC(=O)c2ccc([N+](=O)[O-])cc2Cl)c1O,"inconclusive: 89.1 µM [inhibitor, single point]",
Clc1ccc(OCCCn2cncn2)cc1Cl,active: 22.4 µM,
NC(=Nc1ccc(N)cc1)C(N)=Nc1ccc(N)cc1,active: 5.62 µM,
Fc1cccc(Cl)c1/C=N/n1c(-c2cccnc2)n[nH]c1=S,"inconclusive: 100 µM [inhibitor, partial curve]",
